B1: TMED1_Y103 (peptide)
chain: TEAGDYKLCFD
B2: TIMP3_Y182_S179C_YF (peptide)
chain: FQCKHYACIRQ
B3: TJP2_Y479 (peptide)
chain: NKEPRYQEDPP
B4: TK2_Y181_R183W (peptide)
chain: VDLIVYLWTNP
B5: TMEM230_Y110 (peptide)
chain: KGYRGYSYDDI
B6: TMEM230_Y29 (peptide)
chain: STDDGYIDLQF
B7: TIA1_Y383_YF (peptide)
chain: FRVAGYETQGG
B8: TIA1_Y383_E384K (peptide)
chain: YRVAGYKTQGG
B9: TK2_Y190 (peptide)
chain: NPETCYQRLKK
B10: TMEM230_Y112_YF (peptide)
chain: FRGFSYDDIPD
B11: TMED3_Y85_YF (peptide)
chain: ETKKQYDSFTF
B12: TMEM230_Y29_Y29C (peptide)
chain: STDDGCIDLQF
B13: TMEM159_Y159 (peptide)
chain: EFEGLYQEGGG
B14: TK2_Y190_T188A (peptide)
chain: NPEACYQRLKK
B15: TMPRSS12_Y23_Y19H (peptide)
chain: LHSDHYSPSGR
B16: TKT_Y564 (peptide)
chain: VEDHYYEGGIG
B17: TMEM43_Y233 (peptide)
chain: SENPKYPEVGD
B18: TMPO_Y127_Y127H (peptide)
chain: DQLVKHGVNPG
B19: TLK2_Y259_R262Q (peptide)
chain: KMLEKYKEQLN

For 19 molecules, enrichment score results are on record in the supplement of paper PMC10369915.

This is one part of the list. Rule as the data show it: active = 3.2 or more and inactive = the rest. Only a few entries rise above the background.
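Also: displayed peptides selected on beads carrying the immobilized SH2 domain, with library peptides lacking any tyrosine serving as negative controls.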

The target in the first assay is SHP2 C-SH2 domain E139D. Description: enrichment score (SH2-bound / input frequency) (ratio); bacterial display of known human phosphotyrosine sites (pTyr-Var adds point mutants) read by sequencing; higher = stronger binding; tyrosines were phosphorylated by kinases first. As to conditions: peptide library: pTyr-Var.
As to B1, the enrichment score is inactive: 0.759.
Regarding B2, the enrichment score is active: 4.52.
On to B3, for which the enrichment score was inactive: 0.617.
As for B4, the enrichment score was inactive: 0.604.
Take B5: the enrichment score was inactive: 0.827.
With B6, the enrichment score was inactive: 0.787.
For the molecule B7, the enrichment score is inactive: 0.723.
Regarding B8, the enrichment score is inactive: 0.653.
As for B9, the enrichment score was inactive: 0.561.
For B10, the enrichment score is inactive: 1.02.
Regarding B11, the enrichment score is inactive: 0.678.
Still for that read-out and setting: the value for B12 was inactive: 0.476.
For B13, the enrichment score is inactive: 0.714.
With B14, the enrichment score was inactive: 0.51.
The same measure, in the same setting: then B15, with inactive: 0.944.
In the case of B16, the enrichment score is inactive: 0.716.
For B17, the enrichment score was inactive: 0.657.
Turning to B18, the enrichment score is inactive: 0.692.
Regarding B19, the enrichment score is inactive: 1.09.

For another assay, the target named is SHP2 C-SH2 domain wild-type. The description is as above. As to conditions: peptide library: pTyr-Var.
Turning to B1, the enrichment score was inactive: 1.01.
As for B2, the enrichment score is active: 4.05.
Turning to B3, the enrichment score was inactive: 0.33.
For B4, the enrichment score is inactive: 0.659.
With B5, the enrichment score was inactive: 0.848.
In the case of B6, the enrichment score is inactive: 0.612.
Take B7: the enrichment score is inactive: 0.617.
In the case of B8, the enrichment score is inactive: 0.536.
The same measure, in the same setting: the value for B9 was inactive: 0.771; that for B10 was inactive: 0.77; that for B11 was inactive: 0.633.
In the case of B12, the enrichment score was inactive: 0.411.
With B13, the enrichment score was inactive: 0.651.
On the same count and under the same terms, then B14, with inactive: 0.531.
For the molecule B15, the enrichment score is inactive: 0.9.
Regarding B16, the enrichment score is inactive: 0.607.
The same measure, in the same setting: the value for B17 was inactive: 0.529; that for B18 was inactive: 0.821.
In the case of B19, the enrichment score was inactive: 1.22.

The next assay concerns the target SHP2 N-SH2 domain L43F. Described as above. As to conditions: peptide library: pTyr-Var.
On to B1, for which the enrichment score was inactive: 0.862.
Consider B2, for which the enrichment score was active: 3.74.
As to B3, the enrichment score is inactive: 0.707.
On to B4, for which the enrichment score was inactive: 0.487.
Consider B5, for which the enrichment score is inactive: 0.825.
Regarding B6, the enrichment score was inactive: 1.46.
In the case of B7, the enrichment score is inactive: 0.847.
For the molecule B8, the enrichment score was inactive: 0.478.
Turning to B9, the enrichment score was inactive: 0.571.
As to B10, the enrichment score was inactive: 0.971.
In the case of B11, the enrichment score is inactive: 0.686.
For the molecule B12, the enrichment score was inactive: 0.599.
With B13, the enrichment score is inactive: 0.873.
On the same count and under the same terms, then B14, with inactive: 0.485; and B15, with inactive: 1.05.
Take B16: the enrichment score was inactive: 0.683.
For the molecule B17, the enrichment score was inactive: 0.748.
Same read-out and setting: then B18, with inactive: 0.838; and B19, with inactive: 1.32.

In the next assay the target is SHP2 N-SH2 domain T42A. The description is as above. As to conditions: peptide library: pTyr-Var.
Consider B1, for which the enrichment score is inactive: 0.716.
Still for that read-out and setting: then B2, with active: 3.37; and B3, with inactive: 0.617; and B4, with inactive: 0.362.
On to B5, for which the enrichment score was inactive: 0.817.
For the molecule B6, the enrichment score is inactive: 2.02.
In the case of B7, the enrichment score was inactive: 0.605.
Turning to B8, the enrichment score was inactive: 0.4.
For B9, the enrichment score was inactive: 0.52.
Take B10: the enrichment score was inactive: 0.998.
For B11, the enrichment score was inactive: 0.492.
As to B12, the enrichment score is inactive: 0.435.
Consider B13, for which the enrichment score was inactive: 0.747.
For the molecule B14, the enrichment score was inactive: 0.556.
On the same count and under the same terms, the value for B15 was inactive: 0.746; that for B16 was inactive: 0.59; that for B17 was inactive: 0.767.
With B18, the enrichment score was inactive: 0.687.
For B19, the enrichment score was inactive: 0.929.

For another assay, the target named is SHP2 N-SH2 domain T52S. The description is as above. As to conditions: peptide library: pTyr-Var.
As for B1, the enrichment score was inactive: 0.648.
On the same count and under the same terms, then B2, with active: 3.59.
For B3, the enrichment score is inactive: 0.574.
Regarding B4, the enrichment score is inactive: 0.492.
B5: the enrichment score is inactive: 0.796.
Same read-out and setting: then B6, with inactive: 1.9; and B7, with inactive: 0.674; and B8, with inactive: 0.416.
As for B9, the enrichment score is inactive: 0.664.
For B10, the enrichment score is inactive: 1.05.
As to B11, the enrichment score was inactive: 0.546.
In the case of B12, the enrichment score was inactive: 0.521.
On the same count and under the same terms, the value for B13 was inactive: 0.871; that for B14 was inactive: 0.482; that for B15 was inactive: 0.969.
B16: the enrichment score was inactive: 0.636.
Still for that read-out and setting: the value for B17 was inactive: 0.597; that for B18 was inactive: 0.917.
Turning to B19, the enrichment score was inactive: 1.04.

The next assay addresses SHP2 N-SH2 domain wild-type. The assay is described as above. As to conditions: peptide library: pTyr-Var.
In the case of B1, the enrichment score was inactive: 1.12.
For B2, the enrichment score was active: 3.72.
For B3, the enrichment score was inactive: 1.14.
In the case of B4, the enrichment score was inactive: 0.801.
In the case of B5, the enrichment score was inactive: 1.
As to B6, the enrichment score was inactive: 0.956.
On to B7, for which the enrichment score was inactive: 0.936.
For the molecule B8, the enrichment score was inactive: 0.607.
Consider B9, for which the enrichment score is inactive: 0.714.
On to B10, for which the enrichment score is inactive: 1.01.
On to B11, for which the enrichment score is inactive: 0.886.
On the same count and under the same terms, then B12, with inactive: 0.587; and B13, with inactive: 0.954.
For the molecule B14, the enrichment score is inactive: 0.551.
The same measure, in the same setting: then B15, with inactive: 1.04; and B16, with inactive: 0.842; and B17, with inactive: 0.646.
For the molecule B18, the enrichment score was inactive: 0.812.
With B19, the enrichment score is inactive: 0.896.
